Whole data set: some 16,000 sequences, median “Z-score” near -0.37, cut for the highest 2% near 3.2. The list shows a part of the results.
tested on: RBM10 RRM1-ZnF (GST-tagged construct); test: RNAcompete 7-mer binding Z-score; higher = stronger binding preference
Procedure: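 RNAcompete: 20 pmol GST-tagged RBM10 RNA-binding constructs were incubated with a designed RNA pool of about 241,000 sequences up to 41 nt (1.5 nmol) on glutathione beads for 30 min at 4 °C and washed. Bound RNAs were identified by microarray hybridisation. Each RNA 7-mer is scored by a one-sided Z-score of its enrichment, computed over probes that contain the 7-mer within longer pool sequences.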

Sequence	RNAcompete 7-mer binding Z-score
GCGGUAA	1.17
GAAAAAC	-0.00896
ACGGGAU	2.02
ACCAACA	-0.642
CACUUCC	-0.688
UGGUCUU	-0.422
UCGUGCG	-0.0479
GUGGCGC	0.992
GGCUUAC	-0.392
GAGGCUG	0.888
AGAAACU	-0.617
UUAAAUC	-0.691
ACUCAGG	0.0983
AAGUAAC	-0.119
GCAACUC	-0.629
AGGCAAU	0.056
GCAACGA	-0.214
UGCCCCC	-0.305
CCCGACC	-0.737
CUAGGGU	2.25
AAGGAUA	2.99
UCGAUGC	-0.422
UUCUUCG	-0.834

Sequence	RNAcompete 7-mer binding Z-score
GCAUGUG	0.859
GCUGUAC	-0.331
CUAUUAA	-0.763
CAUAGUU	-0.746
CUCAAAU	-0.698
AAAAGUG	0.764
AUCGGAC	-0.0479
CGCAGAU	-0.389
UCUCCUA	-0.805
CUUCCGG	-0.529
CGAGUUC	-0.824
AGUAUCG	-0.0577
GGGCGUG	2.66
GUUACCA	-0.279
CUGAACA	-0.704
CGAAGUU	-0.236
GAACUUA	-0.428
UGUCCCC	-0.399
CUAAGAG	-0.178
GCACUAU	-0.412
AAGGACA	2.43
AUCUUGA	-0.779
UGCUACU	-0.516

Sequence	RNAcompete 7-mer binding Z-score
UCGGCGC	0.0723
GCCUUGC	-0.73
UGACACG	0.0138
AUAGCGG	0.92
GAUGAAG	2.77
UUAAUAG	-0.396
AUUCCUA	-0.756
CUCUGCA	-0.782
UGGUCGA	0.612
CGAGCUU	-0.655
GACGCUU	-0.935
UCGGAAA	0.368
GUAAUCU	-0.558
UGGACUG	0.917
GAAAGAG	1.42
UACGGCA	0.186
AGCUCAU	-0.837
UUUCAUC	-0.779
AGCUUCU	-0.805
AAAGCUU	-0.399
AAUUAUG	-0.116
GGGUUCG	1.62
AAGGCGC	0.644

Sequence	RNAcompete 7-mer binding Z-score
GUUAAGA	0.283
CCACAGG	-0.0382
UGCUGGA	0.582
GCUAAAU	-0.331
GUGCCCU	-0.568
UUUCGCG	-0.668
ACGCACG	-0.386
CUCAACC	-0.629
CUGAGAG	0.111
AGCGUUC	-0.552
CGGCACG	0.264
CUCCCGA	-0.665
AUAUCUC	-0.701
CACUAAG	-0.266
CCACAAA	-0.623
AUGGAAG	3.6
GCACAAU	-0.516
UUGUUCA	-0.655
GAAGCGG	2.47
AUCAAAC	-0.685
CGACCAA	-0.678
CUCGACC	-0.617
AGCCGCU	-0.789

Sequence	RNAcompete 7-mer binding Z-score
CUCUCCU	-0.672
GAUUGUC	-0.425
GAGUUCA	-0.34
GGCCGAU	-0.249
AACUCUG	-0.776
GCGACGA	0.0268
AUAACAA	-0.418
UAUUGUG	-0.0674
GGCCCGA	-0.5
CGUUUUU	-0.854
AUACUAA	-0.454
CAGGUGU	1.24
GGGAGCC	0.917
AACUGUU	-0.636
GGUGCGA	1.7
UGGCGAG	1.17
AUAUCGC	-0.48
GCUAAAA	0.000789
AUGUUGG	1.5
ACGCGCA	-0.522
UAUAUGU	-0.337
CGCCGGC	-0.639
GCAAUCG	-0.275

Sequence	RNAcompete 7-mer binding Z-score
AGAAACA	-0.236
GGGCUUG	1.39
UGCUUAG	-0.347
CUUUCAC	-0.824
UUACUCU	-0.707
ACUAAGG	0.787
CCAUACU	-0.815
UUUUCGU	-0.727
UGCUGUG	-0.119
ACGUUCG	-0.646
AGUGAUG	0.833
AUACAUU	-0.617
UCCAUGA	-0.652
GGUCGUU	0.456
ACUGGUC	-0.334
UCCCUGA	-0.6
CGACUUU	-0.811
UAUGCAU	-0.376
ACGUGAA	0.134
GAUUCAC	-0.629
GACGUGA	0.433
CUCCAUA	-0.821
GUGUCAG	0.309

Sequence	RNAcompete 7-mer binding Z-score
AUUUCGU	-0.844
UUUGUGU	-0.269
CCUGGGG	0.914
GCGGGCA	2.09
UAACACU	-0.574
GAGCGGA	3.98
AUGUAGC	0.095
GCAGAUU	-0.243
CCGUCUA	-0.776
CUGGGCC	-0.0285
CGUGUCG	-0.266
UUACUUA	-0.704
UCGGAGA	0.647
CAGCGUC	-0.623
CCAUGCC	-0.707
AAGAGGA	2.2
CUCAGCA	-0.613
CGCGAGC	-0.526
UCAGAGC	-0.519
UCCGCCG	-0.617
AUAGUUG	0.28
GAUGGUG	3.27
ACACUAA	-0.539

Sequence	RNAcompete 7-mer binding Z-score
UUUCUCC	-0.808
CCGUAUC	-0.909
AAGUCAU	-0.522
CAUACAA	-0.61
ACCGUCG	-0.526
CAUUUCC	-1.04
CUUCCCA	-0.831
ACAUGCU	-0.503
UCGGCUU	-0.678
UCCUGCA	-0.766
GAACGAA	-0.0447
CUAUAUG	-0.487
AAUACAA	-0.399
UGUAAGC	-0.119
CGAUGGA	1.27
UUAAACC	-0.782
ACAGUCU	-0.785
AAUCAGG	0.943
UAAACAU	-0.555
GCGUUAC	-0.0869
UGCUGGG	1.79
GGCAUAU	0.144
